Results published in the supplement of paper PMC10441789.
This is one part of the list. Antibody binding of pooled human sera (four to six donors per pool; dilution not stated) to peptides of the Trypanosoma cruzi antigen TSSA on microarrays. Quantile-normalised fluorescence in arbitrary units, mean of duplicate arrays; higher = more binding. No active / inactive call. The uninfected pools are read here as the healthy donors of the same country. The strongest signals lie near the top of the scale (about 60,000).

What follows are sequences tested on pooled sera of uninfected people, Colombia (assay: antibody binding signal (normalised fluorescence) (arbitrary fluorescence units); higher = stronger serum antibody binding to peptide).
Experimental: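 Microarray of 15-residue peptides over residues 30-55 of Trypanosoma cruzi TSSAII, each with 1 to 10 substitutions at naturally variable positions, probed with one serum pool per country.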

Sequence | antibody binding signal
KENKPAAGETPSQSG | 254
KDKKPAAGEAPSQSG | 81
SGKDNKTATGGAPSQ | 374
GTDNKTAAGGAPSQS | 185
STPPSGKDNKAATGE | 291
GKDKKPATGGAPSQP | 109
STPPSGKEKKTATGG | 224
NKPAAGGAPSQPGAS | 332
NKAATGETPSQPGAS | 592
GTDNKPAAGGAPSQS | 228
GKDKKTAAGGAPSQS | 146
SGTEKKPAAGGAPSQ | 92.8
SGTEKKPATGGTPSQ | 293
PPSGTENKAAAGGTP | 1110
GTENKPAAGEAPSPP | 102
PPSGTEKKPATGGAP | 513
SGKENKPAAGGTPSP | 310
PPSGTENKPATGETP | 419
KKTAAGGAPSQSGAS | 148
PPSGTDNKPATGGTP | 745

Sequence | antibody binding signal
GTENKAATGGAPSQP | 682
SGTENKAAAGGTPSQ | 369
DKKAATGGTPSPPGA | 1090
KEKKPAAGEAPSQSG | 91.4
EKKPATGGTPSPPGA | 285
TPPSGKEKKPATGGT | 255
GKDNKAAAGGTPSPS | 179
PSGTDKKPAAGEAPS | 444
TSSTPPSGKDNKPAA | 205
PSGKEKKPAAGGAPS | 164
PSGTEKKTAAGEAPS | 1740
TENKAATGGTPSPPG | 318
TPPSGKDKKAATGET | 427
KTATGGTPSPPGASS | 188
SGTEKKTATGETPSP | 130
KKPAAGGTPSQPGAS | 151
TEKKAAAGGAPSPPG | 144
KKAATGGAPSQSGAS | 220
SGKENKTATGEAPSQ | 681
SGTDKKPATGETPSQ | 383
